Laboratory results reported in the RNAGym collection of RNA variant scans (doi:10.7554/elife.90254).
The source gives no read counts; variants with many changes may rest on few reads.

B1: LINE1-full (parent)
chain: UACGUAGGUGGUUUUCCCCUGAUAGUGCUAAGGGGGCCUGGAAGUUUGGACUGGGCAGAGCUCAACACAGCGUGGCAAAGUGGCUGUGGCUAGACUGCCUCUCUGGAUUCCUCGUCACUCAGCAGGGCAUCUCUGAGAGAAAUGCC

Variants of: B1
Assay: self-cleavage, relative activity (ratio to wild type); higher = more cleavage; in vitro, sequencing; the parent is a self-cleaving ribozyme
In the case of U13C U20C A42G A138U, the self-cleavage is reported as 1.17. With U13C U20C A50C A79G C128U U132A the self-cleavage was 1.38. Variant U13C U20C A57G C99U has a self-cleavage of 0.48. For U13C U20C A64U A141U, the self-cleavage was 0.89. In the case of U13C U20C A67G A129G U143C, the self-cleavage is reported as 0.77. U13C U20C G32A U39A U81A gave a self-cleavage of 1.46. Variant U13C U20C U23A has a self-cleavage of 0.23. U13C U20C U23C U132A gave a self-cleavage of 0.77. Work on U13C U20C U91C A142G yielded a self-cleavage of 0.8. Variant U13C U23A A57U has a self-cleavage of 0.12. Work on U13C U23A U45G G97A yielded a self-cleavage of 0.12. U13C U23A U100C showed a self-cleavage of 0.42. Work on U13C U23C A64G yielded a self-cleavage of 0.46. Work on U13C U23C A94G U119C yielded a self-cleavage of 0. With U13C U23C A129G the self-cleavage was 1.58. U13C U23C A141G gave a self-cleavage of 0.6. In the case of U13C U23C G53U C76A, the self-cleavage is reported as 0.96. Work on U13C U23C U45C G55U C103U yielded a self-cleavage of 0.2. In the case of U13C U23C U47A A57U U112A, the self-cleavage is reported as 0.14. Work on U13C U23C U87C A124U yielded a self-cleavage of 0.41. U13C U23G U85A A136G showed a self-cleavage of 0. Work on U13C U26A A42G A142G yielded a self-cleavage of 0.68. U13C U26A U87C U102C showed a self-cleavage of 0.35. U13C U26C A30G G80A C84U U96C showed a self-cleavage of 0.21. Work on U13C U26C C84U A136U yielded a self-cleavage of 0. U13C U26C C113U gave a self-cleavage of 0.81. With U13C U26C G32C A138G A140U the self-cleavage was 1.1. With U13C U26C G70A the self-cleavage was 0.05. Variant U13C U26C G83A A94C U112C A124G has a self-cleavage of 0. U13C U26C U39A U52C showed a self-cleavage of 0.57. Variant U13C U29A A121G has a self-cleavage of 0.88. Work on U13C U29A C61U U96C U115C yielded a self-cleavage of 0.12. U13C U29A G53U A59G A64G A78G U85C showed a self-cleavage of 0. With U13C U29A G93A A94U C118U A140G the self-cleavage was 0.07. For U13C U29A U52C U112C C128U, the self-cleavage was 0.68. Variant U13C U29A U96A U115C A124U A140G has a self-cleavage of 0.1. In the case of U13C U29C A64U U109C U143C, the self-cleavage is reported as 0.76. U13C U29C A94G C99A showed a self-cleavage of 0. U13C U29C A129G gave a self-cleavage of 1.25. In the case of U13C U29C U45C U119A, the self-cleavage is reported as 1.08. Variant U13C U29C U46C U112C has a self-cleavage of 0.97. For U13C U29C U73A C90A U115C G127U, the self-cleavage was 0.06. U13C U29C U102A A124U gave a self-cleavage of 0.69. Work on U13C U29C U109C yielded a self-cleavage of 0.57. In the case of U13C U39A A57U U115C, the self-cleavage is reported as 0.24. In the case of U13C U39A A69U A78U, the self-cleavage is reported as 0.11. U13C U39A U46C gave a self-cleavage of 1.06. Work on U13C U39A U47C A57U C118U yielded a self-cleavage of 0.17. Work on U13C U39A U47C U108C yielded a self-cleavage of 2.6. Work on U13C U39A U81A A141G yielded a self-cleavage of 2.1. With U13C U39C A59U U96A the self-cleavage was 0.07. For U13C U39C A69U, the self-cleavage was 0.07. U13C U39C A78G showed a self-cleavage of 0.67. In the case of U13C U39C U87C U134A, the self-cleavage is reported as 0.35. In the case of U13C U39C U102A, the self-cleavage is reported as 0.85. Work on U13C U39G A129G yielded a self-cleavage of 1.06. U13C U45A U46C A50G U96A gave a self-cleavage of 0.14. In the case of U13C U45A U100C U108C, the self-cleavage is reported as 1.69. With U13C U45A U119C A129G the self-cleavage was 0.74. Work on U13C U45C U62C U85A U108C yielded a self-cleavage of 0. Variant U13C U46A A77U U96A has a self-cleavage of 0.13. Work on U13C U46C U62C yielded a self-cleavage of 0.28. In the case of U13C U46C U85A A117C U119A, the self-cleavage is reported as 0.31. With U13C U46C U87A the self-cleavage was 0.21. With U13C U46G A69G the self-cleavage was 0.5. In the case of U13C U47A A77G, the self-cleavage is reported as 0.81. For U13C U47A U62A U81C, the self-cleavage was 0.21. U13C U47A U73C gave a self-cleavage of 1.45. For U13C U47A U91A A117C G135A, the self-cleavage was 0.85. Variant U13C U47C A129G has a self-cleavage of 2.19. With U13C U47C C51U U102C the self-cleavage was 2.36. For U13C U47C U130C, the self-cleavage was 1.46. For U13C U52A A67G U104G U143C, the self-cleavage was 0. Variant U13C U52A A94G U143C has a self-cleavage of 0.63. Variant U13C U52A U109C has a self-cleavage of 0.97. Work on U13C U52C A59G C61G A77U A136G U143A yielded a self-cleavage of 0. In the case of U13C U52C U91C U134C, the self-cleavage is reported as 0.77. In the case of U13C U62A A77G U96A U102A C133U, the self-cleavage is reported as 0. With U13C U62A A94G C128G the self-cleavage was 0.14. With U13C U62A U73C U112C A138G the self-cleavage was 0.15. For U13C U62C A77U U130A, the self-cleavage was 0.4. Variant U13C U62C A92G has a self-cleavage of 0. U13C U62C G82A A107G showed a self-cleavage of 0.
